Results: PubChem BioAssay (Tox21)
Where “and” joins values, the source holds several entries; their conditions need not be identical. Equal values may be shown once. The shares of active, inactive and inconclusive entries below differ from those in the screen. Potencies of inconclusive entries are left out as doubtful fits. Calls of active or inactive are those of the source. Calls come from the whole dose curve; as a rule, active = well fitted activation curve with a large enough effect in the repeat runs; inconclusive = weak or mixed curves; inactive = flat fitted curve, though single readings scatter.
Note: nearly all actives have a fitted effect of over 40% in size.
Potency is the fitted concentration of half-maximal effect; tags give direction and shape of the fitted curve.

Experiment: A CellTox Green Cytotoxicity Assay to monitor cytotoxicity in HepG2 cells - 40 hour (AID 1224879)
Conditions: CellTox Green fluorescence; series mostly up to 76.8 µM
Method in brief: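 Cells and non-lytic dye reagent are dispensed together (600 HepG2 cells/well) and incubated 5 h before DMSO compound transfer. Kinetic fluorescence is then recorded in the same wells during 40 h at 37 C.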
With O=C1C(=O)c2ccccc2C(O)=C1C1CCC(c2ccc(Cl)cc2)CC1 (stereo unspecified) the Potency was inconclusive [activator, single point].
With CC(=O)CCC1=C(C)CCCC1(C)C the Potency was inconclusive [activator, single point].
For COC(=O)Nc1nc2ccc(Sc3ccccc3)cc2[nH]1, the Potency was active: 1.55 µM and active: 848 nM.
In the case of CC(C)CC(C)CC(O)CC(C)C (stereo unspecified), the Potency was inconclusive [activator, single point].
With CCOC(=O)C(C)(C)Oc1ccc(Cl)cc1 the Potency was inconclusive [activator, full curve, poor fit].
For CC(C)OC(=O)c1cc2c(OCC(O)CNC(C)(C)C)cccc2[nH]1 (stereo unspecified), the Potency was inconclusive [activator, partial curve, poor fit].
For C=Cc1ccc(OC(C)=O)cc1, the Potency was “inactive”.
For C[C@]12CC[C@@H]3c4ccc(O)cc4CC[C@H]3[C@@H]1CC[C@@H]2O, the Potency was inconclusive [activator, partial curve].
In the case of O=[N+]([O-])c1c(Cl)cc(Cl)cc1Cl, the Potency was “inactive”.
With CC(=O)Oc1ccc(C(C)=O)cc1 the Potency was “inactive”.
With Cc1c(N)c(=O)n(-c2ccccc2)n1C the Potency was inconclusive [activator, single point].

Experiment: A CellTox Green Cytotoxicity Assay to monitor cytotoxicity in HEK293 cells - 32 hour (AID 1224881)
Conditions: CellTox Green fluorescence; series mostly up to 76.8 µM
Method in brief: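 Cells (HEK293, 600/well) and dye reagent are dispensed together. After 5 h at 37 C, 23 nL compound is pinned in. Plates stay at 37 C for 40 h with fluorescence read at 0h, 8h, 16h, 24h, 32h and 40h.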
With O=C(O)CN(CCN(CC(=O)O)CC(=O)O)CC(=O)O the Potency was inconclusive [activator, single point].
For C=Cc1cccc(C)c1, the Potency was inconclusive [activator, partial curve, poor fit].
For Nc1ccc(F)cc1, the Potency was “inactive”.
For Cl[Si](Cl)(c1ccccc1)c1ccccc1, the Potency was inconclusive [activator, single point].
For CCOC(=O)C(C)(C)Oc1ccc(Cl)cc1, the Potency was inconclusive [activator, single point].
With CC(C)OC(=O)c1cc2c(OCC(O)CNC(C)(C)C)cccc2[nH]1 (stereo unspecified) the Potency was inconclusive [activator, single point].
With O=CO the Potency was inconclusive [activator, single point].
With C=CCOC(=O)C(=C)C the Potency was inconclusive [activator, single point].
In the case of C[C@]12CC[C@@H]3c4ccc(O)cc4CC[C@H]3[C@@H]1CC[C@@H]2O, the Potency was inconclusive [activator, single point].
In the case of CCCC(O)C(CC)CO (stereo unspecified), the Potency was inconclusive [activator, partial curve, poor fit].
In the case of CCCc1c2oc(C(=O)O)cc(=O)c2cc2c(=O)cc(C(=O)O)n(CC)c12, the Potency was inconclusive [activator, single point].
In the case of COc1cc(C(=O)OCCCN2CCCN(CCCOC(=O)c3cc(OC)c(OC)c(OC)c3)CC2)cc(OC)c1OC, the Potency was inconclusive [activator, partial curve, poor fit].
In the case of O=[N+]([O-])c1c(Cl)cc(Cl)cc1Cl, the Potency was inconclusive [activator, partial curve, poor fit].
For O=Cc1ccc([N+](=O)[O-])cc1, the Potency was “inactive”.
In the case of CC(N=C(NC#N)Nc1ccncc1)C(C)(C)C (stereo unspecified), the Potency was inconclusive [activator, partial curve, poor fit].
For CC(=O)N[C@@H](Cc1ccc(O)cc1)C(=O)O, the Potency was “inactive”.
With CC(C)C[P+](C)(CC(C)C)CC(C)C the Potency was inconclusive [activator, single point].
For COc1ccc(NC(=O)CC(C)=O)cc1, the Potency was inconclusive [activator, single point].
In the case of CCCCCCCCCCCC[N+](C)(C)CCCS(=O)(=O)[O-], the Potency was inconclusive [activator, single point].
In the case of NC(=O)N(O)[C@@H]1C=C[C@H](Oc2cccc(Oc3ccc(F)cc3)c2)C1, the Potency was inconclusive [activator, partial curve].
